Measurements published in publication PMC12820563.
The list shows a part of the results. The list includes weakly bound sequences.

biological target: T1, MBP-FoxP3dN (UniProt Q99JB6); assay: PD-seq (MBP pull-down with sequencing); details: 20 mM Tris-HCl pH 7.5, 100 mM NaCl, 1.5 mM MgCl2, 0.4 uM protein, 0.1 uM dsDNA library, 30 min, room temperature, amylose pull-down; high values mean tight binding; double strand, one strand shown
T1 sequence: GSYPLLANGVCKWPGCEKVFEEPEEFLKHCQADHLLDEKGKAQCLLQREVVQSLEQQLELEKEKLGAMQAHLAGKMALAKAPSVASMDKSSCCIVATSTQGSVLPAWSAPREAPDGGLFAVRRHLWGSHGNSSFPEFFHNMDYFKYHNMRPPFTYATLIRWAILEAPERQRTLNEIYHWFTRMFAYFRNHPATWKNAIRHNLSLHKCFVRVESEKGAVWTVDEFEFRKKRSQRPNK

Sequence | binding signal (RPM ratio (pull-down/input))
GATGATTGTTCTCCCAGCTGATGAATTCTGTCGATCGAGTAAACAAATTTTCCTAATCTTTCTGTTCAAGCGCCATCTAC | 0.612
GATGATTGTTCTCCCAGCTGATGAATTAGGAGGTTCGAGTAAACAAATTTTCCTAATCTTTCTGTTCAAGCGCCATCTAC | 0.35
GATGATTGTTCTCCCAGCTGATGAATTACTATGATCGAGTAAACAAATTTTCCTAATCTTTCTGTTCAAGCGCCATCTAC | 0.43
GATGATTGTTCTCCCAGCTGATGAATTGGCACCTTCGAGTAAACAAATTTTCCTAATCTTTCTGTTCAAGCGCCATCTAC | 0.387
GATGATTGTTCTCCCAGCTGATGAATTCGTCAATTCGAGTAAACAAATTTTCCTAATCTTTCTGTTCAAGCGCCATCTAC | 0.469
GATGATTGTTCTCCCAGCTGATGAATTTGTGGTTTCGAGTAAACAAATTTTCCTAATCTTTCTGTTCAAGCGCCATCTAC | 5.11
GATGATTGTTCTCCCAGCTGATGAATTCCACGTCTCGAGTAAACAAATTTTCCTAATCTTTCTGTTCAAGCGCCATCTAC | 0.386
GATGATTGTTCTCCCAGCTGATGAATTTCTGTGCTCGAGTAAACAAATTTTCCTAATCTTTCTGTTCAAGCGCCATCTAC | 0.339
GATGATTGTTCTCCCAGCTGATGAATTCCTATCTTCGAGTAAACAAATTTTCCTAATCTTTCTGTTCAAGCGCCATCTAC | 0.331
GATGATTGTTCTCCCAGCTGATGAATTCTGAAGCTCGAGTAAACAAATTTTCCTAATCTTTCTGTTCAAGCGCCATCTAC | 0.281
GATGATTGTTCTCCCAGCTGATGAATTTGGCACATCGAGTAAACAAATTTTCCTAATCTTTCTGTTCAAGCGCCATCTAC | 0.97
GATGATTGTTCTCCCAGCTGATGAATTACGTATCTCGAGTAAACAAATTTTCCTAATCTTTCTGTTCAAGCGCCATCTAC | 3.75
GATGATTGTTCTCCCAGCTGATGAATTCAACGGATCGAGTAAACAAATTTTCCTAATCTTTCTGTTCAAGCGCCATCTAC | 0.237
GATGATTGTTCTCCCAGCTGATGAATTAGGTCTGTCGAGTAAACAAATTTTCCTAATCTTTCTGTTCAAGCGCCATCTAC | 0.395
GATGATTGTTCTCCCAGCTGATGAATTGTCTAGGTCGAGTAAACAAATTTTCCTAATCTTTCTGTTCAAGCGCCATCTAC | 0.364
GATGATTGTTCTCCCAGCTGATGAATTCCTCCTGTCGAGTAAACAAATTTTCCTAATCTTTCTGTTCAAGCGCCATCTAC | 0.198

Sequence | binding signal (RPM ratio (pull-down/input))
GATGATTGTTCTCCCAGCTGATGAATTAGCAGGGTCGAGTAAACAAATTTTCCTAATCTTTCTGTTCAAGCGCCATCTAC | 0.346
GATGATTGTTCTCCCAGCTGATGAATTGCGGCTCTCGAGTAAACAAATTTTCCTAATCTTTCTGTTCAAGCGCCATCTAC | 0.817
GATGATTGTTCTCCCAGCTGATGAATTGGCCTCGTCGAGTAAACAAATTTTCCTAATCTTTCTGTTCAAGCGCCATCTAC | 0.618
GATGATTGTTCTCCCAGCTGATGAATTGTGGACGTCGAGTAAACAAATTTTCCTAATCTTTCTGTTCAAGCGCCATCTAC | 0.655
GATGATTGTTCTCCCAGCTGATGAATTGCACCTATCGAGTAAACAAATTTTCCTAATCTTTCTGTTCAAGCGCCATCTAC | 1.12
GATGATTGTTCTCCCAGCTGATGAATTCCGAGTCTCGAGTAAACAAATTTTCCTAATCTTTCTGTTCAAGCGCCATCTAC | 1.2
GATGATTGTTCTCCCAGCTGATGAATTGACCCTGTCGAGTAAACAAATTTTCCTAATCTTTCTGTTCAAGCGCCATCTAC | 0.254
GATGATTGTTCTCCCAGCTGATGAATTGAGCCGATCGAGTAAACAAATTTTCCTAATCTTTCTGTTCAAGCGCCATCTAC | 0.418
GATGATTGTTCTCCCAGCTGATGAATTGCTGTCCTCGAGTAAACAAATTTTCCTAATCTTTCTGTTCAAGCGCCATCTAC | 0.937
GATGATTGTTCTCCCAGCTGATGAATTCCTTGAGTCGAGTAAACAAATTTTCCTAATCTTTCTGTTCAAGCGCCATCTAC | 0.211
GATGATTGTTCTCCCAGCTGATGAATTACTCTCGTCGAGTAAACAAATTTTCCTAATCTTTCTGTTCAAGCGCCATCTAC | 0.275
GATGATTGTTCTCCCAGCTGATGAATTTCGCAACTCGAGTAAACAAATTTTCCTAATCTTTCTGTTCAAGCGCCATCTAC | 5.53
GATGATTGTTCTCCCAGCTGATGAATTAAGATTTTCGAGTAAACAAATTTTCCTAATCTTTCTGTTCAAGCGCCATCTAC | 0.512
GATGATTGTTCTCCCAGCTGATGAATTGGCAGCCTCGAGTAAACAAATTTTCCTAATCTTTCTGTTCAAGCGCCATCTAC | 0.527
GATGATTGTTCTCCCAGCTGATGAATTACTACAGTCGAGTAAACAAATTTTCCTAATCTTTCTGTTCAAGCGCCATCTAC | 0.403
GATGATTGTTCTCCCAGCTGATGAATTATTCGGGTCGAGTAAACAAATTTTCCTAATCTTTCTGTTCAAGCGCCATCTAC | 0.268
